B1: CPEB3 Ribozyme (parent)
chain: UAACAGGGGGCCACAGCAGAAGCGUUCACGUCGCAGCCCCUGUCAGAUUCUGGUGAAUCUGCGAAUUCUGCUGUAUAUCUC

Our source for the self-cleavage values is the RNAGym collection of RNA variant scans (doi:10.1093/nar/gkz1192).

Read counts are not given, so values of variants with three or more changes are uncertain.

Variants of B1 are the subject of the data set. In words: self-cleavage, relative activity (ratio to wild type); higher = more cleavage; in vitro, sequencing. In outline: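 Relative activity compares each variant's cleaved/total read fraction with that of the unmutated ribozyme. To get these fractions, barcoded CPEB3 ribozyme libraries from rounds of error-prone PCR were transcribed with T7 RNA polymerase for 5 hours at 37°C and then given 15 min of DNase I treatment before EDTA was added. The RNAs were reverse transcribed with template switching and sequenced on Illumina, and DNA sequencing linked barcodes to variants. A minimum of 5 reads applied, and three batches were averaged.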
Turning to UAACAGGGGGCCGCAGCAGAAGCGUCCACGUCGCAGCCCCUGUCAGAUUCUGGUGAAUCGGCGAAUUCUGCUGUAUAUCUC [A13G U26C U60G], the self-cleavage is 0.12.
Take UAACAGGGGGCCGCAGCAGAAGCGUUCACGGCGCAGCCCCUGUCAGAUUAUGGUGAGUCUGCGAAUUCUGCUGUAUAUCUC [A13G U31G C50A A57G]: the self-cleavage came to 0.12.
The figure for UAACAGGGGGCCGCAGCAGAAGCGUUCACGUCGCAGCCCCAGUCAGAUUAUGGUGGAUCUGCGAAUUCUGCUGUAUAUCUC [A13G U41A C50A A56G] is 0.34; for UAACAGGGGGCCGCAGCAGAAGCGUUCACGCCGUAGCCCCUGACAGAUUCUGGUGAAUCUGCGAAUUCUGCUGUAUAUCUC [A13G U31C C34U U43A] it is 0.61; for UAACAGGGGGCCGCAGCAGAAGCGUCCACGUUGCGGCCCCUGUCAGAUUCUGGUAGAUCUGCGGAUUCUGCUGUAUAUCUC [A13G U26C C32U A35G G55A A56G A64G] it is 0.04.
For the variant UAACAGGGGGCCGCAGCAGAAGCGUGCACGUCGCAGCCCCUGUCAGAUUCUGGUGAAUCUGCGAAUUCUGCGGUAUAUCUC [A13G U26G U72G], the self-cleavage worked out at 0.2.
Regarding UAACAGGGGGCCGCAGCAGAAGCGUACACGUCGCAGCCCCUGCCAGAUCCUGGUGAAUCUGCGAAUUCUGCUGUUUAUCUC [A13G U26A U43C U49C A75U], the self-cleavage was determined as 0.08.
Consider UAACAGGGGGCCGCAGCAGAAGCGUCCACGUCUCAGCCCCUGUCAGGUUCUGGUGAAUCUGCGGAUUCUGCUGUAUAUCUC [A13G U26C G33U A47G A64G], for which the self-cleavage stood at 0.12.
In the case of UAACAGGGGGCCGCAGCAGAAGCGUUCACGACGCGGCCCCUGUCAGAUUCUGGUGAAUCUGCGAAUUCUGCUGUUUAUCUC [A13G U31A A35G A75U], the self-cleavage turned out to be 0.8.
The figure for UAACAGGGGGCCGCAGCAGAAGCGUUCACGCCGCAGCCCCCGUCAGAUUCUGGUGAAUCUGCGAAUUCUGCUGUAUAUCUC [A13G U31C U41C] is 0.44.
Take UAACAGGGGGCCGCAGCAGAAGCGUACACGUCGCAGCCCCUGUCAGAUUCUGGUGAAUCUGCGAAUCCUGCUGUAUAUCUC [A13G U26A U67C]: the self-cleavage amounted to 0.37.
The figure for UAACAGGGGGCCGCAGCAGAAGCGUUCACGCCGCAGCCCCUGUCAGAUUCUGGUGAAUCUGCGAAUUCUGCUGUAUAUGUC [A13G U31C C79G] is 0.88; for UAACAGGGGGCCGCAGCAGAAGCGUACACGUCGCAGCCCCUGUCAGACUCUGGUGAAUCUGCGAAUUCUGCUGCAUAUCUC [A13G U26A U48C U74C] it is 0.31; for UAACAGGGGGCCGCAGCAGAAGCGUCCACGUCGCAGCCCCUGUCAGACUCUGGUGAAUCUGCGAAUUCUGCUGUAUAUCUC [A13G U26C U48C] it is 0.24.
For UAACAGGGGGCCGCAGCAGAAGCGUCCACGUCGCAGCCCUUGUCAGAUUCUGGUGAAUCUGCGAACUCUGCUGUAUAUCUC [A13G U26C C40U U66C], the self-cleavage was 0.05.
The figure for UAACAGGGGGCCGCAGCAGAAGCGUUCACGUCGCAGCCCCCGCCAGAUUCUGGCGAAUCUGCGAAUUCUGCUGCAUAUCUC [A13G U41C U43C U54C U74C] is 0.33; for UAACAGGGGGCCGCAGCAGAAGCGUGCCCGUCGCAGCCCCUGUCAGACUCUGGUGAAUCUGCGAAUUCUGCUGUAUAUCUC [A13G U26G A28C U48C] it is 0.12; for UAACAGGGGGCCGCAGCAGAAGCGUUCACGUCGCAGCCCCCGUCAGAUUCUGGUGAAGCUGCGAAUUCUGCUGUAUAUCUC [A13G U41C U58G] it is 0.14.
The figure for UAACAGGGGGCCGCAGCAGAAGCGUUCACGUCGCAGCCCCAGGCAGACUCUGGUGAAUCUGCAAAUUCUGCUGUAUAUCUC [A13G U41A U43G U48C G63A] is 0.1; for UAACAGGGGGCCGCAGCAGAAGCGUUCACGUCGCAGCCCCCGUCAGAUUCUGGUGAAUCUGCGAAUUCUGCUGUACAUCUC [A13G U41C U76C] it is 0.91; for UAACAGGGGGCCGCAGCAGAAGCGUCCACGUCGCAGCCCCUGUCAGAUUCUGGUGAAUCCGCGAAUUCUGCUGUACAUCUC [A13G U26C U60C U76C] it is 0.15.
The figure for UAACAGGGGGCCGCAGCAGAAGCGUUCACGCCGCAGCCCCUGUCAGAUCCUGGUGAAUCUGCGAAUUCUGCUGUAGAUCUC [A13G U31C U49C U76G] is 0.05.
Consider UAACAGGGGGCCGCAGCAGAAGCGUUCACGUCGCAGCCCCCGUCGGAUCCUGGUGAAUCUGCGAAUUCUGCUGUAUAUCUC [A13G U41C A45G U49C], for which the self-cleavage was found to be 0.22.
The figure for UAACAGGGGGCCGCAGCAGAAGCGUUCACGCCGCAGCCCCUGUCAGUUUCUGGUUAAUCUGCGAAUUCUGCUGUAUAUCCC [A13G U31C A47U G55U U80C] is 0.31; for UAACAGGGGGCCGCAGCAGAAGCGUUCACGUCGCAGCCCCCGUCAGAUUCUGGUGAAUCUGCGAGUUCUGCUGUAUAUCUC [A13G U41C A65G] it is 0.22.
For UAACAGGGGGCCGCAGCAGAAGCGUUCACGUCGCAGCCCCCGUCAGACUCUGGUGAAUCGGCGAAUUCUGCUGUAUAUCUC [A13G U41C U48C U60G], the self-cleavage was found to be 0.13.
For UAACAGGGGGCCGCAGCAGAAGCGUCCACGUCGCAGCCCCUGCCAGGUUCUGGUGAAUCUGCGAAUUCUGCUGUACGUCUC [A13G U26C U43C A47G U76C A77G], the self-cleavage was found to be 0.43.
As for UAACAGGGGGCCGCAGCAGAAGCGUCCACGUCGCUGCCCUUGUCGGAUUCUGGUGAAUCUGCGAAUUCUGCUGUAUAUCUC [A13G U26C A35U C40U A45G], the self-cleavage is 0.1.
As for UAACAGGGGGCCGCAGCAGAAGCGUCCACGUCGCAGCCCCUGUCAGAUUCUGGUGAAUCUGCGAAUUCUGCUGUAUAUCCC [A13G U26C U80C], the self-cleavage was 0.61.
Take UAACAGGGGGCCGCAGCAGAAGCGUUCACGACGCAGCCCCUGCCAGAUUCUGGUGAAUCUGCGAGUUCUGCUGUAUAUCUC [A13G U31A U43C A65G]: the self-cleavage was determined as 0.16.
With UAACAGGGGGCCGCAGCAGAAGCGUUCACGUCGCAGCCCCAGUCAGAUUCUGGUGUAUCUGCGAAUUCUGCUGUAUAUCUC [A13G U41A A56U], the self-cleavage was determined as 0.12.
For UAACAGGGGGCCGCAGCAGAAGCGUUCACGUCGCAGCCCCAGUCAGAUUCUGGUGAAUCCGCGAAUUCUGCAGUAUAUCUC [A13G U41A U60C U72A], the self-cleavage worked out at 0.31.
As for UAACAGGGGGCCGCAGCAGAAGCGUUCACGUCGCAGCCCCAGUCAGAUUCCGGUGAAUCUGCGAAUUCUGCUGUAUACCUC [A13G U41A U51C U78C], the self-cleavage stood at 0.13.
As for UAACAGGGGGCCGCAGCAGAAGCGUUCACGGCGCAGCCCCUGUCAGAUUCUGGUCAAUCUGCGAAUUCUGCUGUAUAUCUC [A13G U31G G55C], the self-cleavage worked out at 0.41.
